Some of the results follow.

This assay has as its target T1, OsWOX13 (Oryza sativa, UniProt Q5QMM3 1-267).
T1 sequence: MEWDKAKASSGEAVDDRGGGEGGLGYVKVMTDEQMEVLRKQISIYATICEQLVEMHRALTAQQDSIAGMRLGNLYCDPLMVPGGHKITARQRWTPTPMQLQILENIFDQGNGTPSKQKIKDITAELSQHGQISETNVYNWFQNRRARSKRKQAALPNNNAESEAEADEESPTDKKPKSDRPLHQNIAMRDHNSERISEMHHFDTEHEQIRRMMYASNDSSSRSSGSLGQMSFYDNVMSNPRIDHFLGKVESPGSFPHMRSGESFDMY
Briefly: protein-binding microarray (RPBM); PBS, 2% BSA, 51.3 ng/ul salmon testes DNA, 50 uM zinc acetate, 200 nM TF, 25 C, 1 h; high values mean tight binding. The settings on record: protein: recombinant; tags: N-terminal polyhistidine and DsRed monomer fusion (pET32a); label: CyDye5-dUTP incorporated in the synthesized complementary strand; 3' TTTTT single-stranded linker to array surface; dsDNA, one strand shown. In a few lines: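 An Axon 4000B scanner gave the binding signal as per-feature fluorescence intensity in arbitrary units. This followed washing of a custom Agilent array that had been incubated for 1 h at 25 °C with 200 nM protein in PBS, 2% BSA, salmon testes DNA and 50 µM zinc acetate. The proteins were transcription factors fused at the N-terminus to polyhistidine and DsRed, expressed in E. coli BL21-CodonPlus and purified on Ni–NTA.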
“CGTGACAGCCTCACACGCGGCGCCTCTCACCCGTCGCTACCGGAGTCACCTAGTGCAG”: the binding signal was 3210 fluorescence intensity (a.u.).

As for “ACGTGGGGATTGATCTGGTATGTGCAGAGCTTGGAGGGGACGGAGTCACCTAGTGCAG”, the binding signal is 8560 fluorescence intensity (a.u.).

As to “TAAACATGATTTATCGATATGATAGGCTACTTAATTTCATCGGAGTCACCTAGTGCAG”, the binding signal was 14700 fluorescence intensity (a.u.).

As to “CACCATGCCAGATTGTTAATTACTCACGCACGAATTCCTACGGAGTCACCTAGTGCAG”, the binding signal was 6620 fluorescence intensity (a.u.).

For “ACTTGAAAATTTAAATTTTAGATGATAAGTACTCCCTCCGCGGAGTCACCTAGTGCAG”, the binding signal is 17600 fluorescence intensity (a.u.).

For the sequence “CTAATTAATCCGTCATTAGCAAATATTTACTGTAGCACCACGGAGTCACCTAGTGCAG”, the binding signal was 17700 fluorescence intensity (a.u.).

As to “GGGTTCAAATCTTTGATTTGACATAGATGTTCGAAGCGTTCGGAGTCACCTAGTGCAG”, the binding signal is 6850 fluorescence intensity (a.u.).

As for “CACAATCACAATTATAACCATTACAGATAATTACATCACTCGGAGTCACCTAGTGCAG”, the binding signal was 18300 fluorescence intensity (a.u.).

On to “CTTTCTGTCAATTACTCAACCTTTGTTGCATAGCTTGATTCGGAGTCACCTAGTGCAG”, for which the binding signal is 15000 fluorescence intensity (a.u.).

In the case of “CTCCTTAATTTACTTATTTGTCTTTAATTGGTTCTCGCACCGGAGTCACCTAGTGCAG”, the binding signal is 33700 fluorescence intensity (a.u.).

“TGAGTGTGATTTGCATGCACGGGAGGCTCAAACGAAGCCACGGAGTCACCTAGTGCAG”: the binding signal was 5620 fluorescence intensity (a.u.).

For the sequence “CAAATTTATAATAATTAAAATTTAATTAATTATGTGTTAACGGAGTCACCTAGTGCAG”, the binding signal is 57700 fluorescence intensity (a.u.).

As to “CCTTAAACTATAATCTGTGTTAAATAACCTAGAAAGCAACCGGAGTCACCTAGTGCAG”, the binding signal was 3550 fluorescence intensity (a.u.).

In the case of “TGGGATACTAATTAGAAGTATTAAATGTAGACTAATGATACGGAGTCACCTAGTGCAG”, the binding signal is 6830 fluorescence intensity (a.u.).

Regarding “CTAAATTGGCGGGAGTGCCCTTGGGCGGGCTGCCGCATGCCGGAGTCACCTAGTGCAG”, the binding signal was 25200 fluorescence intensity (a.u.).

Regarding “TGTATAATTAAGGGACCCCGTATATCTGGTTTTGTGGTTCCGGAGTCACCTAGTGCAG”, the binding signal is 7010 fluorescence intensity (a.u.).

Regarding “CAAAACAGACATAATCTTGTTGGACAGACGTAGCCATGAACGGAGTCACCTAGTGCAG”, the binding signal is 12500 fluorescence intensity (a.u.).

Regarding “TTTCGTGATAATTTTGTGTGCAATCACAACAATTTGAAATCGGAGTCACCTAGTGCAG”, the binding signal was 6180 fluorescence intensity (a.u.).

“CGTGAACTAATTTATAGTCCAAAATAGATCGTAAAACCTACGGAGTCACCTAGTGCAG”: the binding signal was 5670 fluorescence intensity (a.u.).

In the case of “GTCCTAATGTAATGATTTGTTTATTATCAAGTGAAAGAAACGGAGTCACCTAGTGCAG”, the binding signal was 20800 fluorescence intensity (a.u.).

Take “TAATTAGGTTAATTAATTACTCATGGTTTATTGCTTGGAGCGGAGTCACCTAGTGCAG”: the binding signal was 18500 fluorescence intensity (a.u.).

For the sequence “CTAACTAAATTGTCTGTGGGCTGCTGGGCCTCTTCTTCGTCGGAGTCACCTAGTGCAG”, the binding signal is 19200 fluorescence intensity (a.u.).

For the sequence “TAGTAATCATATCCATCAAACGTTATAGCATGAGCGTCATCGGAGTCACCTAGTGCAG”, the binding signal was 6130 fluorescence intensity (a.u.).

With “GCATATCAATTTGTTTAGCCAATGGCAAAATTTAGAAGTCCGGAGTCACCTAGTGCAG”, the binding signal is 5810 fluorescence intensity (a.u.).

For the sequence “ATAAATTTATGGTAAATTTGAAGTTGACAAATAATAACGCCGGAGTCACCTAGTGCAG”, the binding signal is 42600 fluorescence intensity (a.u.).

As to “TTTAAACTGGATGTTATTGCAAGGTTGCCACATGCAAAACCGGAGTCACCTAGTGCAG”, the binding signal was 8290 fluorescence intensity (a.u.).

On to “AACCCATTGTCCAATCAAGGTTGAACTCCTCCCATCTGGACGGAGTCACCTAGTGCAG”, for which the binding signal was 6890 fluorescence intensity (a.u.).

For “AAGTGATTTGTTTAGTACTTCCTCCGTTTCACAATGTAAGCGGAGTCACCTAGTGCAG”, the binding signal is 20300 fluorescence intensity (a.u.).

Turning to “AACGATGGATTGACGAAATAACGAGAGAAGCCAAGCCAAGCGGAGTCACCTAGTGCAG”, the binding signal is 16700 fluorescence intensity (a.u.).

“TTGGGGTTGATTTTGCTGATGTTTAGCCATTTCTTTGGTACGGAGTCACCTAGTGCAG”: the binding signal is 7000 fluorescence intensity (a.u.).

Consider “GTGTGATTTGTTCTTCATTCCCTCCAATCATTTGCAGGCTCGGAGTCACCTAGTGCAG”, for which the binding signal is 40000 fluorescence intensity (a.u.).

In the case of “GATGGATTGTAAATAACATTGATGGAGTAACTAATGAGAACGGAGTCACCTAGTGCAG”, the binding signal was 5270 fluorescence intensity (a.u.).

Consider “GTGAGATGATGATTACTCATCAGATCCCAAACCTACGCCCCGGAGTCACCTAGTGCAG”, for which the binding signal is 16900 fluorescence intensity (a.u.).

With “TTAAATTGGAACAGAGGGAGCAGTATCTACGCCCATGCCACGGAGTCACCTAGTGCAG”, the binding signal is 29500 fluorescence intensity (a.u.).

Turning to “CTTCTAATCTATGTTATGTGATAATGGTCATGCAGGTGTTCGGAGTCACCTAGTGCAG”, the binding signal was 3780 fluorescence intensity (a.u.).

For “ACAGCTGGTGATGAAATTGATTTTCTCCTGTTAACAAAACCGGAGTCACCTAGTGCAG”, the binding signal was 8100 fluorescence intensity (a.u.).

In the case of “AACAATATCGTTAATTTGCTAAAATTATGGGAATTGTTAACGGAGTCACCTAGTGCAG”, the binding signal is 10600 fluorescence intensity (a.u.).

Regarding “CAAACAAGGAATAAATTAATCAATCATGCTTCTGTTAACCCGGAGTCACCTAGTGCAG”, the binding signal is 18400 fluorescence intensity (a.u.).

Consider “CAATCTGCCAAATGGCAATTTGGCATCAATCATTATCACACGGAGTCACCTAGTGCAG”, for which the binding signal was 3840 fluorescence intensity (a.u.).

For the sequence “GAATCCAGTAATATAATTAGATTGAAATCTGGATAAACAGCGGAGTCACCTAGTGCAG”, the binding signal is 31200 fluorescence intensity (a.u.).

Consider “CAAAACGAATTAATTAATTTGGTTTTAATTAATTTTGTTCCGGAGTCACCTAGTGCAG”, for which the binding signal is 46700 fluorescence intensity (a.u.).

Consider “ACAATGAAGGAGTTTAATTGGACTATATTTCCACATCGTTCGGAGTCACCTAGTGCAG”, for which the binding signal was 4180 fluorescence intensity (a.u.).

The values are drawn from publication PMC7819943, “Rice protein-binding microarrays: a tool to detect cis-acting elements near promoter regions in rice”.
